The list shows a part of the results. The full chains were built here from the parent and the listed change. Values near 0.05 are background.
B1: TEV protease; numbered along this chain (parent)
chain: MGESLFKGPRDYNPISSSICHLTNESDGHTTSLYGIGFGPFIITNKHLFRRNNGTLVVQSLHGVFKVKDTTTLQQHLVDGRDMIIIRMPKDFPPFPQKLKFREPQREERICLVTTNFQTKSMSSMVSDTSCTFPSGDGIFWKHWIQTKDGQCGSPLVSTRDGFIVGIHSASNFTNTNNYFTSVPKNFMELLTNQEAQQWVSGWRLNADSVLWGGHKVFMVKPEEPFQPVKEATQL

Variants of: B1
Test: raw area under fraction-flipped curve 0-4 h after induction (AUC4h, not background-subtracted), DNA-recorder readout of cleavage of the substrate (dimensionless); higher = more cleavage of the substrate by the protease variant
Settings: temperature: 34 °C; time window: 0-4 h after rhamnose induction
Method: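 In vivo DNA recorder in E. coli TOP10(DE3) ΔrhaA at 34 °C. Each TEVp single-site mutant (parent TEVp 0) is paired with a single-site variant of the 7-mer TEVs (canonical ENLYFQ|S). The substrate sits between flexible linkers in a Bxb1-sfGFP-TEVs-SsrA fusion, so cleavage stabilises Bxb1 and speeds flipping of a recombination array, read by NGS. The value is the raw area under the fraction-flipped curve over 0-4 h after rhamnose induction (AUC4h), with ≥20 reads per time point. It is not background-subtracted; inactive controls average about 0.047.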
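Also: Bxb1 expression induced with 0.2% (w/v) L-rhamnose at OD600 near 0.5, cultures sampled hourly, flipped fraction per protease–substrate barcode pair counted by paired-end Illumina sequencing.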

Variant	area with substrate EALYFQS	area with substrate ECLYFQS	area with substrate EDLYFQS	area with substrate EELYFQS	area with substrate EFLYFQS	area with substrate EHLYFQS	area with substrate EILYFQS	area with substrate EKLYFQS	area with substrate ELLYFQS	area with substrate EPLYFQS	area with substrate EQLYFQS	area with substrate ERLYFQS	area with substrate ESLYFQS	area with substrate ETLYFQS	area with substrate EVLYFQS	area with substrate EWLYFQS	area with substrate EYLYFQS	area with substrate EMLYFQS	area with substrate EGLYFQS
R81T	0.0715	0.0693	0.0859	0.0837	0.086	0.0845	0.0654	0.0728	0.0643	0.0753	0.0732	0.0822	0.0745	0.0629	0.0736	0.0917	0.0619	–	–
M88G	0.0759	–	0.0852	–	–	0.0666	0.0655	0.071	–	–	–	0.0808	0.0732	0.119	0.0802	0.066	–	0.0642	–
M88E	0.0573	0.0514	0.0239	0.0501	–	0.0664	–	–	0.0436	0.0435	0.0627	–	0.0531	–	–	0.115	–	–	0.0658
R10S	0.114	0.128	0.1	0.119	0.0867	0.0927	0.0833	0.0899	0.108	0.108	–	–	0.0999	0.166	0.102	0.102	0.0792	0.112	0.0999
T176C	0.0826	–	–	–	0.0582	–	–	0.088	0.0653	–	–	–	–	–	0.0704	0.078	–	–	–
T176D	0.0736	–	0.0926	–	–	–	0.0677	0.0864	–	–	–	0.0578	0.0797	–	–	–	–	0	0.0846
R204K	0.127	0.139	0.187	0.125	0.112	0.0825	0.0841	0.103	–	0.139	0.147	0.125	0.112	0.119	0.101	0.0677	–	0.121	0.0974
A232K	0.164	0.133	–	–	–	–	0.075	–	–	0.0081	–	–	0.127	0.153	–	–	–	0.129	–
L61G	0.126	0.137	0.185	0.123	0.12	–	0.0942	0.0982	–	0.127	0.123	0.12	0.101	–	0.103	–	0.0964	0.133	0.0975
V157F	0.127	0.0706	0.102	0.0856	0.115	0.0828	0.0806	0.12	0.0727	0.115	0.186	0.0875	0.097	0.0599	–	–	0.0558	0.0737	0.11
K148A	0.117	0.112	0.154	0.12	0.0998	–	0.0986	0.119	–	0.102	–	0.0895	0.1	–	0.0799	0.105	0.163	–	0.084
P96N	0.116	0.0718	0.119	–	–	0.0812	0.082	0.0942	–	–	–	0.106	0.103	–	0.0953	0.115	0.102	–	–
N13V	0.093	0.104	0.12	0.118	0.0843	0.103	0.0907	0.153	0.0934	0.0949	0.129	0.104	0.0957	0.126	0.1	0.0791	0.102	0.111	0.0968
V64C	0.0981	0.125	0.122	0.107	0.0979	0.116	0.0941	0.104	0.0826	0.122	0.113	0.136	0.113	0.113	0.114	0.0764	0.117	0.13	–
L48F	0.119	0.0876	–	0.115	–	0.131	–	0.111	0.098	–	0.116	–	0.107	–	0.11	0.0912	0.113	0.128	–
L48C	0.0951	0.0822	0.135	0.0821	0.0777	–	0.0584	0.0461	0.0779	–	0.0861	0.0678	0.0577	0.0899	0.072	0.0888	0.0635	–	–
L48S	0.0666	0.062	0.0857	0.0683	0.0654	–	0.0583	0.0558	0.0676	–	0.0667	0.0664	0.0572	0.0799	0.0541	0.061	–	0.0925	0.0748
L48V	0.0732	0.0635	0.0798	0.066	0.0651	0.0558	0.0565	0.0753	–	0.0821	0.0712	0.0741	0.0719	0.0664	0.0679	–	0.0697	0.0623	0.0601
L48A	0.0873	–	–	–	0.0704	0.0851	0.0671	–	0.0896	0.0795	0.0893	0.108	0.0774	–	0.0762	0.0743	0.0825	0.0902	0.0669
P104T	0.044	0.0731	–	0.0955	–	0.079	0.0333	–	–	–	–	0.062	0.0654	–	–	–	–	0.0471	–
P104M	0.0616	0.0519	0.066	0.0553	–	0.0321	0.05	0.0512	0.0681	0.0534	0.0606	0.0481	–	0.0515	0.0617	0.0537	0.0462	–	–
P104W	0.0431	0.0464	0.0217	0.0515	0.0484	0.0513	–	0.0571	–	0.0358	0.11	0.0578	0.0521	0.0612	0.0532	0.0566	0.0565	0.0542	0.0507
I167K	0.0727	0.0552	0.0503	0.0438	0.0657	0.0568	0.0364	0.0485	–	0.0534	0.0552	0.0559	0.0507	0.0512	0.0455	0.0631	0.0476	0.0492	0.0497
G8F	0.18	–	0.124	–	–	–	0.0706	–	–	–	–	–	–	–	–	0.0754	–	–	–
G8P	0.0819	0.109	0.138	–	–	0.0829	–	0.131	0.1	0.118	0.107	0.0948	0.138	–	–	–	–	–	0.118
G8D	0.0967	0.0573	–	–	–	–	–	–	–	0.148	0.111	–	0.113	–	–	–	–	–	0.0881
